# Out of some 310,000 compounds screened, about 2,200 (0.71%) showed an effect of 50% or more. The effect is printed as a negative number. The list shows a part of the results.
# Target: human ether-à-go-go-related gene (hERG) potassium channel (human, UniProt Q12809)
# Assay: primary screen, population patch clamp on CHO cells stably expressing hERG
# Chain of human ether-à-go-go-related gene (hERG) potassium channel (Q12809 whole entry, looked up): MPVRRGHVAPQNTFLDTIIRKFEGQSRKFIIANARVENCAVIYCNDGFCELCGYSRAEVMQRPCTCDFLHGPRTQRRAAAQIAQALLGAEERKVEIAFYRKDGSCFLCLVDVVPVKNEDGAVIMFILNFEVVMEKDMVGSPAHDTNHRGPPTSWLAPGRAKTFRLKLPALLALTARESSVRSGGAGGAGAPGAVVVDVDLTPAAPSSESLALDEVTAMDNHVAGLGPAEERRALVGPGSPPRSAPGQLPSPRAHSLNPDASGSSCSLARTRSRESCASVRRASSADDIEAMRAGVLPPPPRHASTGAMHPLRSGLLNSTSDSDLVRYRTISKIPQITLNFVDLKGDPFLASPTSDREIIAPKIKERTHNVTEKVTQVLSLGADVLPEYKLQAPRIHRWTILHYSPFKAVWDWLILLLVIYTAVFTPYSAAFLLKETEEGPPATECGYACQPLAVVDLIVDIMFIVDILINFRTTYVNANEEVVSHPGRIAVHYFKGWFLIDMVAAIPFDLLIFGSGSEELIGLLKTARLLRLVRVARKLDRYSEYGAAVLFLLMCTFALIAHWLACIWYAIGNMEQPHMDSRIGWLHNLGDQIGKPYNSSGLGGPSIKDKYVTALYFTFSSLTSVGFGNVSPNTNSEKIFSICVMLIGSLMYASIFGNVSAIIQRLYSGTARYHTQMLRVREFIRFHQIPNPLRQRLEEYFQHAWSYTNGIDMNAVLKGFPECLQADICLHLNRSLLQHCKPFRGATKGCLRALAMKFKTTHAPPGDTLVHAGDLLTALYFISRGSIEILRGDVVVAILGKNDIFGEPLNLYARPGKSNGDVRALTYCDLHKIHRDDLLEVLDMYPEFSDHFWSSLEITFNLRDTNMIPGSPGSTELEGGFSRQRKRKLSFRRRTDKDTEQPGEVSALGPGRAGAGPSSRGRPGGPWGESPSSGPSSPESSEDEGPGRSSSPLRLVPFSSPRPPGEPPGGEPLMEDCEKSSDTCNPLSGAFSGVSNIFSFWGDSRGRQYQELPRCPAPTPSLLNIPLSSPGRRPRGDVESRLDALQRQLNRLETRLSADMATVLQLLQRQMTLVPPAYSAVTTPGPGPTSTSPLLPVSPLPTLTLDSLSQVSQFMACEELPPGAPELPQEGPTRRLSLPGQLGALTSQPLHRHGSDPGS
row,SMILES,"hERG current change (%, negative = inhibition) at 1uM [%]"
1,COCC(=O)N(Cc1ccco1)c1nnc(C2CCOC2)s1 (centres unmarked),13.1
2,COC(=O)C1=C(C)NC(=O)CC1c1ccccc1 (centres unmarked),2.82
3,CCN(CC)C(=O)COc1ccc(-c2nnc(Nc3ccc(OC)c(C(=O)NC)c3)c3ccccc23)cc1,16.6
4,CN(C)S(=O)(=O)c1ccc2c(c1)C(CC(=O)O)OC2=O (centres unmarked),6.19
5,Cc1ccc2nc(SCC(=O)Nc3ccc(F)cc3F)nc(=O)n2c1,9.6
6,CCN(CC(=O)NCc1ccc(Cl)cc1)CC(=O)NC1(C#N)CCCC1,1.74
7,N#CCSc1nnc(-c2ccccc2O)n1CCc1ccccc1,-0.36
8,CC(C)C(c1nnnn1C1CCCC1)N1CCN(c2ccccc2F)CC1 (centres unmarked),3.13
9,COc1ccc(CCNc2cc(C)nc3c(-c4ccccc4)c(C)nn23)cc1OC,11.2
10,Cn1cc(Br)c(C(=O)Nc2ncc(Br)s2)n1,16.4
11,Cl.Nc1nc(N)c2[nH]c(-c3ccccc3)nc2n1,9.97
12,Cc1nn(Cc2ccccc2)c(Cl)c1C(=O)OCC(=O)NCC1CCCO1 (centres unmarked),0.919
13,COc1ccc(CN2CCNC(=O)C2CC(=O)NC2CCC2)c(OC)c1 (centres unmarked),6.48
14,CCn1c(SCc2ccccc2)nc2cc(S(N)(=O)=O)ccc21,12.4
15,CCOC(=O)N/N=C(\C)c1ccc(Br)cc1,3.72
16,N#Cc1ccsc1NC(=O)c1cccc(-n2cnnn2)c1,7.88
17,Cc1cccc(NC(=O)c2ccc(N3CCOCC3)c([N+](=O)[O-])c2)n1,-24.9
18,Nn1c(SCC(=O)Nc2ccccc2C(F)(F)F)nncc1=O,18.5
19,Cc1ccc(CNC(=O)c2cc(-c3ccccc3)n(Cc3cc(C)no3)n2)cc1,2.62
20,CCOC(=O)C(C)Sc1ncc(-c2ccccc2)cn1 (centres unmarked),6.67
21,CCN1/C(=C2/SC(=S)NC2=O)Sc2ccccc21,18.1
22,CCOC(=O)C(C(=O)Nc1cccc(C)c1)C1CCCCC1 (centres unmarked),7.27
23,Cc1ccc(-c2nn[nH]n2)o1,14.7

row,SMILES,"hERG current change (%, negative = inhibition) at 1uM [%]"
1,Cc1cc(Oc2ccc(-c3ccccc3)cc2)nc(N2CCOCC2)n1,2.61
2,C[C@@H]1CC=C[C@H]2[C@H]1C(=O)N(Cc1ccccc1)[C@H]2c1ccc(Br)cc1F,15.8
3,COc1cccc(NC(=O)CSc2nc(=O)n(Cc3ccncc3)c3c2CCCC3)c1,9.08
4,CCCS(=O)(=O)N1CCC(C(=O)NCCc2ccc(OC)c(OC)c2)CC1,13
5,COC(=O)C1=C(c2ccccc2)C[C@@H]2CC[C@H]1N2C(=O)NCc1ccco1,8.99
6,O=C(CN1C(=O)NC2(CCc3ccccc32)C1=O)Nc1cc(C(F)(F)F)ccc1N1CCOCC1 (centres unmarked),12.6
7,NC(=O)c1csc(-c2ccncc2)n1,8.8
8,Cc1cc(C)cc(C(=O)NCC(=O)OCC(=O)N(C)c2ccccc2)c1,4.09
9,CCCOC(=O)C1C2C=CC3(CN(c4cccc(Cl)c4)C(=O)C13)O2 (centres unmarked),4.04
10,COC(=O)c1c(C(=O)OC)c(-c2cccc(F)c2)n2c1CS(=O)C2 (centres unmarked),9.76
11,O=C1NC[C@@H](Cc2cccc3ccccc23)N(CCC23CC4CC(CC(C4)C2)C3)C1=O,17.7
12,CC(=O)Nc1ccc(NC(=O)CCc2ccc(C)o2)cc1,12.6
13,Nc1nc2c(nc(SCc3ccccc3Br)n2[C@@H]2O[C@H](CO)[C@@H](O)[C@H]2O)c(=O)[nH]1,9.84
14,C/C(=N\Nc1c(F)c(F)c(Br)c(F)c1F)c1ccncc1,14.8
15,Nc1ccn([C@H]2CS[C@@H](CO)O2)c(=O)n1,8.85
16,Cc1ccccc1CNC(=O)CN(c1ccccc1Cl)S(C)(=O)=O,2
17,COc1cc(NC(=O)C(C)Oc2ccccc2)c(OC)cc1NC(=O)c1ccccc1 (centres unmarked),13.2
18,C[C@H](NC(=O)c1ccc(Br)cc1)C(=O)NCc1ccc(S(N)(=O)=O)cc1,14.5
19,NC(=O)NC(=O)COC(=O)CCCc1c[nH]c2ccccc12,9.26
20,Cn1c(SCC(=O)Nc2ccc3c(c2)n(C)c(=O)n3C)nnc1-c1ccncc1,42.3
21,CS(=O)(=O)N(CCc1ccccc1)CC(=O)N1CCN(c2ccccc2)CC1,17.7
22,COc1cc(N)cc(NC(=O)c2ccncc2)c1,15
23,CCCCc1nnc(NC(=O)CSc2nc(=O)cc(N)n2-c2ccccc2)s1,-6.56

row,SMILES,"hERG current change (%, negative = inhibition) at 1uM [%]"
1,Cc1cc(NC(=O)CCN2C(=O)C3C4C=CC(C4)C3C2=O)c2ccccc2n1 (centres unmarked),13.6
2,CC1=C(C(=O)Nc2ccccc2)C(c2coc3ccccc3c2=O)C2=C(CCCC2=O)N1 (centres unmarked),10.3
3,O=C(O)C1CCCN(S(=O)(=O)c2ccc(Br)cc2)C1 (centres unmarked),-4.56
4,CCCCn1c(N)c(N(CCOC)C(=O)c2ccc(Br)o2)c(=O)[nH]c1=O,19.5
5,Cc1ccc(NC2=NC(c3ccccc3)n3c(nc(C)cc3=O)N2)c(C)c1 (centres unmarked),-2.18
6,N#Cc1ccc(OCC(=O)NC(=O)NC2CCS(=O)(=O)C2)cc1 (centres unmarked),0.467
7,Cc1ccccc1C(=O)NN1CCOCC1,3.43
8,Cc1ccc(F)cc1NC(=O)c1cnccn1,-1.23
9,COc1cc(C)c(Cl)cc1S(=O)(=O)NCC1CCCO1 (centres unmarked),12.4
10,O=S(=O)(/N=C(/Nc1ccccc1)c1ccccc1O)c1ccccc1,4.76
11,O=S(=O)(Cc1nnnn1-c1ccccc1)c1ccccc1,10.9
12,Nc1c(N(CCC2=CCCCC2)C(=O)c2ccccc2F)c(=O)[nH]c(=O)n1Cc1ccccc1,6.84
13,O=C(NCCO)c1ccc(Cl)c(Cl)c1,8.39
14,c1ccc(C[C@H]2CNCCN2CCc2cccc3ccccc23)cc1,4.66
15,Cc1cccc(C)c1OCC(=O)Nc1ccc(N2CCOCC2)cc1,7.29
16,CCOc1ccc(N(CC(=O)N2CCCCCC2)S(=O)(=O)c2ccc(F)cc2)cc1,-15
17,CCN(Cc1ccccc1)C(=O)Cn1c(=O)n(-c2ccc(OC)cc2OC)c(=O)c2c(C)c(C)sc21,3.19
18,Cc1oc(-c2ccccc2F)nc1CS(=O)(=O)CC(=O)NC1CCCC1,7.68
19,COC(=O)c1c(C)oc2ccc(OC(=O)N3CCOCC3)cc12,11.1
20,Cc1ccnc(SCc2cn3c(C)cc(C)nc3n2)n1,4.64
21,CCCCn1c(O)c(C(C)=NCc2cccnc2)c(=O)[nH]c1=O,5.18
22,CC(=O)Nc1ccc(/C(C)=N/Nc2nc(Nc3cccc4ccccc34)nc(N3CCOCC3)n2)cc1.CCO,11.9
23,CC(=O)c1cnn(-c2cc(Oc3cccc(C)c3)ncn2)c1C,16

row,SMILES,"hERG current change (%, negative = inhibition) at 1uM [%]"
1,COc1ccccc1NC(=O)Cc1nnc(SCC(=O)NC2CCCC2)n1C,12.6
2,CCOC(=O)N1CCN(C(=O)c2nn(-c3ccc(C)cc3)c(=O)c3c2c2ccccc2n3C)CC1,9.14
3,CCOCCOC(=O)c1[nH]c2c(c1C)C(=O)CC(c1cc(OC)c(OC)c(OC)c1)C2 (centres unmarked),-2.15
4,COc1ccc(OC)c(C(=O)NC(CC(N)=O)c2ccc(N3CCN(c4ccccc4)CC3)c([N+](=O)[O-])c2)c1 (centres unmarked),17.1
5,O=C(Cc1ccc(S(=O)(=O)N2CCOCC2)s1)Nc1ccc(N2CCOCC2)cc1,21.8
6,Cc1ccc(NC(=O)/C(Cl)=C/c2ccccc2)cc1C,2.13
7,CCCOc1cc(CN2CCCCC2)cc(C(C)=O)c1.Cl,7.46
8,CCN(CC)CCCN(C(=O)c1ccco1)c1nc(-c2ccc(C)cc2)cs1.Cl,-90.2
9,COCC(C)n1c(=O)sc2ccccc2c1=O (centres unmarked),-1.66
10,CC(C)(C)N1CC(C(=O)Nc2ccc(S(N)(=O)=O)cc2)CC1=O (centres unmarked),9.73
11,Cc1cc(NC(=O)CSCC(=O)Nc2nc3ccccc3[nH]2)no1,17.4
12,COc1ccc2oc(-c3ccc(C)c(NC(=O)c4ccc(N5CCOCC5)c([N+](=O)[O-])c4)c3)nc2c1,-5.93
13,CCCN(CCC)CCCn1c(=O)[nH]c2ccccc21.Cl,14.2
14,CCOC(=O)COc1c(OC)cc(Cl)cc1C1Nc2ccccc2C(=O)N1c1ccccc1 (centres unmarked),10.4
15,Cc1ccc(S(=O)(=O)N2CCCNCC2)cc1,13.1
16,COc1ccc(S(=O)(=O)NCC(c2ccc3c(c2)OCO3)N2CCN(c3ccccc3)CC2)cc1 (centres unmarked),9.76
17,COc1ccc(CCNC(=O)CN2C(=O)COc3ccc(S(=O)(=O)N4CCOCC4)cc32)c(OC)c1,4.22
18,COc1ccc(N2CC(C(=O)NCCC3=CCCCC3)CC2=O)cc1 (centres unmarked),7.66
19,O=C(COC(=O)c1cc(Br)ccc1Cl)NC(=O)NCc1ccccc1,10.1
20,Cc1cc(C)nc(-n2nc(C)cc2NC(=O)c2cccc(S(=O)(=O)N(C)C)c2)n1,8.89
